Results from ChEMBL document CHEMBL4888484, “Replenishing the malaria drug discovery pipeline: Screening and hit evaluation of the MMV Hit Generation Library 1 (HGL1) against asexual blood stage Plasmodium falciparum ,using a nano luciferase reporter read-out” (2022).
About 540 (0.36%) of roughly 150,000 compounds showed an effect of 50% or more. The list shows a part of the results.

The molecules below were run on Plasmodium falciparum (assay: Primary screen in NF54 nanoGlo assay, in single point, at 2uM, 72h; a lower Z score goes with more inhibition). Conditions: timepoint 72 hour.
Format: functional, Erythrocyte

SMILES | % Inhibition | Z score
O=C(CCn1cnnn1)Nc1nc(-c2cccs2)n[nH]1 | -1% | 0.1
CCc1cnc(C(C)NC(C)c2ccc(C)o2)s1 (stereo not given) | 1% | -0.09
Cc1ccc(Cl)cc1N1CCN(C(=O)c2ccc(-n3ccc4ccccc43)s2)CC1 | -16% | 2.05
c1ccc(Nc2c(-c3ccccc3)nc3[nH]cnn23)cc1 | 2% | -0.22
CC(C)(C)OC(=O)NC1(CO)CCC1 | 12% | -1.42
Cc1ccc2c(C(=O)NC3CC(NS(C)(=O)=O)C3)c(C)ccc2c1 (stereo not given) | -11% | 1.77
COc1ccc(OCCS(=O)(=O)Nc2ccc3sc(C)nc3c2)cc1 | -15% | 2.05
C[C@H]1CCN(C(=O)N2CCc3ccsc3C2)C1 | -1% | 0.2
Cc1nnnn1CCC(=O)NC1(c2cc(F)cc(F)c2)CC1 | 15% | -2.01
CNS(=O)(=O)[C@H]1CCN(c2cc(C)c(Br)cn2)C1 | -5% | 0.46
CCCCCn1cc(C2CCN(C(=O)CC(C)(C)C)CC2)c2ccccc21 | -10% | 1.22
Cc1cc(C(=O)N[C@H]2CCCN(CCCc3ccccc3)C2)c(C)o1 | -9% | 1.26
CC[C@H](NCc1ccc(-c2cc[nH]n2)o1)c1nc(C)c(C)s1 | -24% | 2.16
COC(=O)C(C(=O)OC)C(C(=O)OC)(C(=O)OC)N1CCOCC1 | 2% | -0.25
CC(C)(C(=O)NC1CCCC1)C(F)F | -10% | 1.94
CNC(=O)c1nnsc1N1CCN(c2ccccn2)CC1 | -43% | 5.06
Cc1nc(C2CC2)ccc1C(=O)N[C@H]1CCCn2c(C)nnc21 | 4% | -0.45
CCNc1ccc(C#N)cc1NCc1noc(C)n1 | -2% | 0.17
CCC[N+]1(CC#CC2(O)CCCCC2)CCOCC1 | -9% | 1.67
CN1CC2(C)CN(C(=O)c3cccc(C#CC(C)(C)O)c3)CC(C)(C1)C2 | -8% | 0.88
COc1ccc(-c2nc3ccc(C(=O)NCCc4ccc(OC)c(OC)c4)cc3nc2-c2ccc(OC)cc2)cc1 | 19% | -2.56
Cc1cc(=O)cc(C(=O)N[C@@H](C)CCCC(C)(C)O)[nH]1 | -14% | 1.83

SMILES | % Inhibition | Z score
Cn1ccc(CCC(=O)N[C@H]2CCCC[C@H]2CC(F)(F)F)n1 | -6% | 0.74
Cc1nc([C@@H]2CCCN2Cc2cn(C(C)C)nc2C)cs1 | -5% | 0.73
Cc1cccc(CC2CN(C(=O)c3cc(C(C)C)nn3C)C2)c1 | -10% | 1.44
O=C1N(Cc2c(Cl)cccc2Cl)c2ccccc2[C@@]1(O)Cc1ccncc1 | -30% | 2.61
C[C@H]1Cc2ccccc2N1C(=O)CS(=O)(=O)c1cccnc1 | 6% | -0.79
CC1CCCN(CC(C)NC(=O)c2n[nH]c3ccccc23)C1 (stereo not given) | -5% | 0.62
Cc1ccc(N[C@@H](C(N)=O)c2c(C)[nH]c(=O)[nH]c2=O)cc1 | -18% | 2.36
CN1C(=O)COC(C(=O)N2CCOC(c3cccc(O)c3)C2)C1c1ccccc1 (stereo not given) | -10% | 1.75
O=C(NC1CCCC1CCO)c1cccc(C2CCOC2)c1 (stereo not given) | 17% | -2.32
CN(Cc1ccccn1)c1ncc(Cl)cc1F | -19% | 2.17
CC1(C)Oc2ccc(NC(=O)COc3ccccc3)cc2NC1=O | 31% | -1.13
COc1cc(C2N3CCc4ccccc4C3CN2S(=O)(=O)c2ccccc2)ccc1OS(=O)(=O)c1ccccc1 (stereo not given) | 35% | -3.95
CCC(CC)(CC)NCc1cc(Cl)ccc1OCC#N | -10% | 0.93
O=C(CN1C(=O)c2ccccc2C1=O)NC1CCN(Cc2ccccc2)CC1 | 4% | -0.5
CC(C)C(=O)N1CCCN(S(=O)(=O)N(C)C[C@H](C)C#N)CC1 | -9% | 1.35
CC1CN(CC(=O)Nc2nc(-c3ccc(Cl)cc3)cs2)CC(C)O1 (stereo not given) | -20% | 2.73
Cc1nc(-c2ccccc2)c(N)c(N2CCCC2)n1 | -18% | 2.25
Cc1cc(C)c(C(=O)NCCc2ncc[nH]2)cc1C | -2% | 0.31
Cc1nc([C@H](O)c2ccccc2)n(-c2cccc(Cl)c2F)n1 | -8% | 1.33
Cc1n[nH]c(C)c1CC(=O)N(C)CC(=O)Nc1cc(F)cc(F)c1 | -3% | 0.28
O=C(c1cccc(-n2cncn2)c1)N(CC1CC1)C1CCCCC1 | -2% | 0.23
COc1ccc(-n2nnc3c(=O)n(CC(=O)N4CC(C)OC(C)C4)cnc32)cc1OC (stereo not given) | -3% | 0.65

SMILES | % Inhibition | Z score
O=C1CC2(CCN(C(=O)c3ncoc3C3CC3)CC2)CN1Cc1ccccc1 | -6% | 0.63
Cn1cc([C@@H]2CCCN2Cc2nc3ccccc3n2C)cn1 | 2% | -0.28
O[C@@H](c1ccco1)c1nccn1Cc1cc(Cl)ccc1F | 2% | -0.31
O=C1C[C@]2(NC(=O)Nc3ccc4c(c3)OCCNC4)CCCC[C@@H]2N1 | 14% | -1.83
NC(=O)Cn1ccnc1C1CCN(C(=O)c2n[nH]c3ccccc23)CC1 | -5% | 0.59
O=C1CN(C(=O)Nc2nc(-c3ccccc3Cl)ns2)CCN1 | 6% | -0.89
CN(Cc1ccccn1)C[C@]1(O)CCc2ccccc21 | -8% | 1.48
CC(=O)Nc1ccc(Cc2nc(-c3ccc(N4CCOCC4)cc3)no2)cc1 | -16% | 2.13
O=C(Nc1ccc(S(=O)(=O)N2CCCC2)cc1)c1ccc2ccccc2n1 | -17% | 1.75
CC(C)c1nc(N2CCN(C3CCN(C(C)C)CC3)[C@@H](CCO)C2)no1 | -7% | 0.6
COc1cc(NC(=O)c2cnc(N(C)C)nc2)cc(OC)c1 | 4% | -0.68
CCOC(=O)[C@H]1CCCN(C(=O)CCN(CC)C(=O)c2cc3n(n2)CCCN(Cc2ccc(F)cc2)C3=O)C1 | 5% | -0.71
O=C(Nc1cc(C(F)(F)F)ccc1Cl)[C@@H]1COCC(=O)N1Cc1cccs1 | -10% | 1.74
CC(C)(CNC(=O)c1cccs1)C(F)(F)F | -34% | 4
CCCCn1ncc(C)c1NC(=O)CCC(=O)N(C)C | 2% | -0.41
NC(CC1CCCCC1)C(=O)NC1CC1c1ccccc1 (stereo not given) | -2% | 0.24
O=C(Nc1ccccc1)N1CCCN(C(=O)Nc2ccccc2)CC1 | 7% | -1.38
COc1nc(-c2cccc(C(=O)N(CCO)Cc3nccn3C)c2)nn1C | -13% | 1.24
O=C(NCc1cc[nH]n1)NCC1(N2CCOCC2)CCCCC1 | 2% | -0.22
CCn1ccc(C(=O)N2CC(n3ccnc3C)C2)n1 | 0% | 0.09
CCNc1nc(C)c(C(=O)N[C@@H](C)c2nnc(C(C)C)o2)s1 | -6% | 0.95
Cc1ccc(-n2nc3c(N4CCC(C(=O)NC5CCCC5)CC4)nnc(C)c3c2C)cc1 | 12% | -1.38

SMILES | % Inhibition | Z score
CC1CCN(c2nnc(C(=O)NCc3cccc(C(F)(F)F)c3)c3ccccc23)CC1 | -11% | 1.02
C[C@@H](CN1CCN(c2ccccn2)CC1)NC(=O)CCc1ccco1 | -10% | 0.88
c1nc(-c2ccc(N3CCC(N[C@H]4CCCOC4)CC3)cc2)cs1 | 13% | -1.69
CC(C)CCc1noc(CN(CC#N)S(=O)(=O)N(C)C)n1 | -5% | 0.57
Cc1oc2ncn(Cc3ccc(F)cc3)c(=O)c2c1C(=O)O | -11% | 1.48
O=C(Cc1csc(-c2ncccn2)n1)Nc1ccc2c(c1)CCC2 | -37% | 4.3
Cc1ccc(CN(CCN2CCOCC2)C[C@H](O)COCc2ccccc2)c(C)c1 | -10% | 1.21
COC[C@H](NC(=O)Nc1cccnn1)c1ccc(Cl)cc1 | 1% | -0.22
Cn1cc(C#N)cc1C(=O)N[C@H](c1cccnc1)C(F)(F)F | -1% | 0.09
Cc1cccc(-c2ncc(C(=O)N3CC(O)C3)c(O)n2)c1 | 1% | -0.11
NC(=O)N1CCOc2ccc(F)cc2C1 | -7% | 0.56
Cc1cnccc1CN(C)C(=O)[C@H]1CCS(=O)(=O)C1 | -3% | 0.58
CC(C)c1noc(CN(C)[C@@H](C)C(=O)NCc2ccccc2)n1 | 6% | -1.1
Cn1ccc(NC(=O)C(=O)N2CCC[C@H]2c2cccc(F)c2)n1 | -13% | 1.74
COc1ccc(CN2C(=O)c3cc(-c4ccc(OC)cc4)nn3C[C@@]2(C)C(=O)NCc2ccccc2)cc1 | 6% | -0.96
Cc1ccccc1C1(C(=O)NC2CCN(CCS(C)(=O)=O)CC2)CCCC1 | 5% | -0.69
Cc1c(C#N)c(NC(=O)C[C@H](n2cccn2)C(F)(F)F)nn1C | 10% | -1.36
COc1ccc2c(c1)c(CN1C[C@@H](CO)[C@H](NC(C)=O)C1)cn2C(C)C | -5% | 0.98
CN(CC(C)(C)S(C)(=O)=O)c1nnc(C(F)(F)F)s1 | -5% | 0.51
